Reference: PubChem BioAssay AID434955 (Southern Research Specialized Biocontainment Screening …, 2010)
Several values for one entry are separate records, joined by “and”; a condition that tells them apart may be missing. Equal entries are not always repeated. Some of the results follow. These are further read-outs of the screen, such as a control signal, another cell line or another target. No call is given for them. The list favours compounds with an active or inconclusive main result.

Experiment: beta-lactam sensitization of Mtb H37Rv, H37Rv (AID 434955);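 note: growth measured after seven days incubation then overnight dye step; 0% = bacteria only wells and 100% = bacteria with antibiotic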
Details: M. tuberculosis H37Rv growth with meropenem, percent inhibition; measured here: primary screen without meropenem; at 25 µM

Row | SMILES | inhibition
1 | Cc1cc(NC(=O)Cn2c(=O)c3c(ncn3CCC(C)C)n(Cc3ccccc3)c2=O)no1 | -1.09%
2 | Cc1ccc(C(=O)N2CCCC(Nc3ccc(F)cc3)C2)cc1C (centres undefined) | 11%
3 | NC(=S)NN=C1c2cc(S(=O)(=O)N3CCOCC3)ccc2-c2ccc(S(=O)(=O)N3CCOCC3)cc21 | -4.51%
4 | Cc1ccsc1C(=O)N1CCCC(N(C)Cc2ccccc2)C1 (centres undefined) | -8.2%
5 | COc1ccc(NC(=O)c2cc(Br)ccc2Cl)c(OC)c1 | 42.9%
6 | O=C(NC(=S)NCCc1ccccc1)c1cccc(Cl)c1 | 13.8%
7 | Clc1ccc(Cn2cc(/C=N/n3cnnc3)c3ccccc32)cc1 | 23.6%
8 | Cc1ccc(C(=O)C[n+]2cc(-c3ccccc3)n3c2CCCCC3)cc1 | 2.54%
9 | COc1cc2[nH]c(=O)n(CCC(=O)N3CCN(c4cc(Cl)ccc4C)CC3)c(=O)c2cc1OC | -5.44%
10 | CC(=O)c1cccc(CN2CCC(n3nccc3NC(=O)CCc3ccccc3)CC2)c1 | -0.03%
11 | CC(Cc1cnccn1)NCc1c(C(=O)N2CCCCCCC2)nc2ccc(Cl)cn12 (centres undefined) | -7.4%
12 | c1ccc2c(c1)OCC(c1nn3cnnc3s1)O2 (centres undefined) | -5.47%
13 | Cn1c(/C=C/c2ccc(Cl)cc2)nc2ccccc2c1=O | 37.4%
14 | Cc1ccc(-n2ncc3c(=O)n(CC#N)cnc32)cc1C | 29.8%
15 | Cc1oc2ccc(OC(C(=O)O)c3ccccc3)cc2c1C(=O)O (centres undefined) | 11.1%
16 | CC1CCCC(N2CCN(C(=O)c3ccc(F)cc3)CC2)C1 (centres undefined) | -2.5%
17 | CCOc1ccc(C(=O)NCC(=O)NCCOc2ccc(C)cc2)cc1 | 5.54%
18 | CCOC(=O)c1[nH]c2ccc(F)cc2c1NC(=O)CN1CCc2cc(OC)c(OC)cc2C1 | 11.2%
19 | Cc1cc(C)nc(SCC(=O)Nc2ccccc2[N+](=O)[O-])n1 | 54.2%
20 | CCOc1cc(S(=O)(=O)NCc2ccc(OC)cc2)c(OCC)cc1-n1cnnn1 | 2.6%
21 | O=C(N/N=C/c1cccc(OCc2ccccc2)c1)c1ccc(Br)o1 | 64.3%
22 | c1ccc(-n2ncc3c(NCCCN4CCOCC4)ncnc32)cc1 | 3.87%

Row | SMILES | inhibition
23 | COc1ccc(OCC(=O)N2CCN(C(=O)COc3ccc(Br)cc3)CC2)cc1 | -5.27%
24 | CN(/N=C/c1ccc(O)cc1O)c1nc(-c2ccccc2)cc(-c2ccccc2)n1 | -9.65%
25 | Cn1cccc1Cc1nnc(SCC(N)=O)n1-c1ccc(F)cc1 | -4.56%
26 | O=C(NCCCN1CCCC1=O)Nc1ccc([N+](=O)[O-])cc1 | 3.37%
27 | COCCNC(=S)N/N=C(\C)c1cccc(OC)c1 | 5.82%
28 | CCC(C(=O)Nc1ccccc1N1CCCC1)c1ccccc1 (centres undefined) | 19%
29 | CC[C@@](C)(NS(=O)(=O)OCC(Cl)(Cl)Cl)c1ccccc1 | 30.9%
30 | Clc1cccc2sc(N3CCOCC3)nc12 | -3.37%
31 | CC(=O)Nc1ccc(S(=O)(=O)NC2(C(F)(F)F)NC(=O)N(Cc3ccccc3)C2=O)cc1 (centres undefined) | -4.59%
32 | O=C(Nc1nc(-c2ccc3c(c2)OCO3)cs1)c1ccncc1 | -9.93%
33 | CCOC(=O)CN(Cc1sccc1C)C(=O)Nc1ccc(OCC)cc1 | -0.41%
34 | CC(C)c1ccc(/C=C(\NC(=O)c2ccccc2)C(=O)NCCN2CCOCC2)cc1 | 2.76%
35 | Cc1cc(N2CCCCCC2)nc(-c2ccccc2O)n1 | 41.2%
36 | CCCCCCC(=O)Nc1nc(C)c(-c2csc(Nc3cc(Cl)ccc3OC)n2)s1 | 20.8%
37 | CCC(C)NCCOCCOc1ccc(Cl)c2ccccc12 (centres undefined) | 33.5%
38 | CCOC(=O)CSc1nnc(-c2nnc(SCC(=O)OCC)n2CC)n1CC | 3.91%
39 | CCn1c(=O)cc(SCC(=O)N2CCN(C3CCCCC3)CC2)c2ccccc21 | 7.02%
40 | CN1CCN(S(=O)(=O)c2ccc3[nH]cc(C(=O)O)c(=O)c3c2)CC1 | 0.23%
41 | Cc1nc(C)c(-c2csc(NCc3ccccc3)n2)s1 | 9.91%
42 | CCOC(=O)N1CCN(C(=O)c2ccc3c(=O)n(Cc4ccccc4OC)c(=S)[nH]c3c2)CC1 | -15.9%
43 | CC(=O)NCCc1ccc(S(=O)(=O)NC2OC(=O)c3ccccc32)cc1 (centres undefined) | -0.49%
44 | Cc1nnc(Sc2nc3c(c(=O)n(C)c(=O)n3C)n2Cc2ccccc2Cl)s1 | 9.1%

Row | SMILES | inhibition
45 | O=C(CN1Cc2ccccc2C1=O)Nc1ccc2c(c1)OCCO2 | 9.54%
46 | Cc1ccc(NC(=O)CCc2nnc3ccc(N4CCOCC4)nn23)cc1C | -6.29%
47 | O=C(CCSCc1ccccc1Cl)NC1CCCC1 | 2.51%
48 | CCOC(=O)N1CCN(C(=O)Cn2c(=O)sc3ccccc32)CC1 | -1.63%
49 | Cc1ccc2c3c(c(SCC(=O)Nc4nonc4C)nc2c1)CCCC3 | -0.19%
50 | NC(=O)C1CCCN(Cc2c(C(=O)N3CCc4ccccc4C3)nc3ccc(Cl)cn23)C1 (centres undefined) | -5.22%
51 | CCCCCCOC(=O)NCC(O)c1ccccc1 (centres undefined) | 6.28%
52 | COC(=O)c1sc(S(=O)(=O)N2CCCCC2)c(C(=O)OC)c1C | -6.84%
53 | CCc1cc(C(N)=S)ccn1 | 97.6% and 40.1%
54 | CSc1ncc(Cl)c(C(=O)Nc2cccc3ccccc23)n1 | 29.6%
55 | Cc1nn(-c2ccccc2)c(Cl)c1/C=N/NC(=O)c1ccn[nH]1 | -3.77%
56 | O=C(O)C1C2C=CC3(CN(C4CCCC4)C(=O)C13)O2 (centres undefined) | -11.7%
57 | Cn1nc(-c2ccc(Cl)cc2)nc2c(=O)n(C)c(=O)nc1-2 | 99.4%
58 | Cc1ccc(S(=O)(=O)N2CCN(C(=O)c3ccccc3)CC2)cc1 | -0.71%
59 | COc1ccc(F)c(-c2nc(CN3CCN(C(=O)c4ccco4)CC3)c(C)o2)c1 | 1.16%
60 | O=C(c1ccc(-c2ccc(Cl)cc2)o1)N1CCN(S(=O)(=O)c2cccs2)CC1 | 33.1%
61 | Cc1cc(CNC(=O)C2CCC(=O)N(Cc3ccccc3F)C2)on1 (centres undefined) | 1.46%
62 | Cc1cc(C=C2C(=O)NC(=S)NC2=O)c(C)n1-c1ccc2c(c1)OCO2 | 14.7%
63 | OC1c2cc(Br)ccc2N=C2CCCN21 (centres undefined) | 2.48%
64 | CC(=O)Nc1ccc(S(=O)(=O)NCC(=O)OCC(=O)N2CCN(c3ccccc3)CC2)cc1 | -3.81%
65 | CN1CCN(S(=O)(=O)c2ccc(NC(=O)c3ccc(Br)s3)cc2)CC1 | 9.54%
66 | O=S(=O)(c1cnccc1N1CCN(CCO)CC1)N1CCCCC1 | 5.61%

Row | SMILES | inhibition
67 | O=C(CSc1nc2ccccc2n1CC(=O)N1CCCC1)Nc1ccc2c(c1)OCO2 | -0.02%
68 | CC1(C)CCCC2=C1CC1C(=O)N(Cc3cccnc3)C(=O)C1C2 (centres undefined) | 3.23%
69 | COc1cccc(/C=N/n2c(C3CCCCC3)n[nH]c2=S)c1OC | 1.94%
70 | NC(=S)N/N=C/c1ccc2ccccc2c1 | 13.8%
71 | Cc1nnc(SCC(=O)Nc2ccc3c(c2)OCCO3)s1 | 3.58%
72 | O=c1[nH]c(=S)[nH]c(O)c1N=Nc1ccc(SC(F)F)cc1 | 26%
73 | Cc1cc(C)c(OCC(=O)Nc2nc3ccccc3[nH]2)c(C)c1 | 23.2%
74 | CCOc1ccc(S(=O)(=O)N(C)C2CCCCC2)cc1 | -3.16%
75 | COc1cccc(OCc2cc(C(=O)N(C)Cc3nc(C)cs3)no2)c1 | 10.8%
76 | O=C(CSc1nccn1Cc1ccco1)Nc1ccc(F)cc1 | 0.89%
77 | O=C1OC(c2ccccc2)=C/C1=C/c1cccs1 | -3.59%
78 | Cc1ccccc1CS(=O)(=O)c1nnc([C@H](CC(C)C)NC(=O)OC(C)(C)C)o1 | 1.12%
79 | O=C(Nc1ccccc1C(=O)NCc1ccccc1)c1ccccc1 | 17.4%
80 | COc1ccc(CCCNC(=O)C2CCC(=O)N(CC3CCCCC3)C2)cc1 (centres undefined) | 3.51%
81 | CN(CC(=O)N1CCCC1)S(=O)(=O)c1cc(Cl)ccc1Cl | -6.06%
82 | CCOc1ccc(N(CC(=O)N2CCCCCC2)S(=O)(=O)c2ccc(C)cc2)cc1 | -5.92%
83 | COc1ccc(S(=O)(=O)N2CCCC(C(=O)NCC3CCCO3)C2)cc1C (centres undefined) | 2.21%
84 | COc1ccccc1NC(=O)CCSc1nnnn1C | -1.99%
85 | CCOc1ccc(N(CC(=O)NCc2cccc(OC)c2)S(=O)(=O)c2c(C)noc2C)cc1 | -5.82%
86 | CCCN(CC1CCCO1)C(=O)c1cc(COc2ccc(F)cc2F)on1 (centres undefined) | -0.76%
87 | CN(c1ccc(C(=O)Nc2ccccc2Sc2ccccc2)cc1)S(C)(=O)=O | 41.5%
88 | CC(C)OP(=O)(OC(C)C)C(Nc1ccccc1)c1ccc2c(c1)OCO2 (centres undefined) | -3.85%

Row | SMILES | inhibition
89 | C=CCc1cccc(/C=N/NC(=O)COc2ccc(-n3cnnn3)cc2)c1O | 5.24%
90 | COc1ccccc1-c1nnc(NC(=O)CCS(=O)(=O)c2ccccc2)o1 | -1.92%
91 | Cc1ccc(S(=O)(=O)NC2=NCN(CCOC(=O)c3ccc([N+](=O)[O-])cc3)CN2)cc1 | -9.85%
92 | Cc1cccc(NC(=O)c2ccc(S(=O)(=O)N(C)CC3CCCO3)cc2)c1C (centres undefined) | 4.56%
93 | O=C(OCC(=O)N1CCN(C(=O)c2ccco2)CC1)c1ccc(Cl)c(Cl)c1 | 78.9%
94 | CCCCNC(=O)c1onc(CSc2ccc(OC)cc2)c1C(=O)O | 30.5%
95 | O=C(Cn1cnc2c(nnn2Cc2ccc(Cl)cc2)c1=O)NCC1CCCO1 (centres undefined) | 0.8%
96 | Cc1cc(C)cc(SCc2noc(C(=O)NC(C)C)c2C(=O)O)c1 | 1.24%
97 | CCOC(=O)c1c(C)c(C(=O)N2CCCCCC2)c(C)n1C | 0.38%
98 | CC(CN1CCC(n2nccc2NC(=O)c2ccccc2Cl)CC1)c1ccccc1 (centres undefined) | 4.63%
99 | COc1cc(NS(=O)(=O)c2ccc3c(c2)C(C)(C)C(=O)N3C)cc(OC)c1 | -6.62%
100 | CC(=O)C1=C(C)NC(SCC(=O)c2ccc(Cl)cc2)=C(C#N)C1CC(C)C (centres undefined) | 20.6%
101 | COC(=O)c1sc(-c2ccc(C(C)(C)C)cc2)cc1NC(=O)CCC(=O)O | 34.1%
102 | Cc1c(C2N3CC4(C)CN2CC(C)(C3)C4=O)c2ccccc2n1C (centres undefined) | 0.81%
103 | NCC(=O)c1cccc2ccc[n+]([O-])c12 | 5.02%
104 | CN(c1ccccc1)S(=O)(=O)c1ccc(NC(=O)COc2ccccc2)cc1 | 1.3%
105 | O=C(CC(Sc1ccc(Br)cc1)C(=O)O)c1ccc(Br)cc1 (centres undefined) | 37.9%
106 | C/C(Cc1ccccc1)=N\NC(=O)c1cccnc1 | -7.73%
107 | CCc1ccc(C(=O)COC(=O)CNC(=O)c2ccc(Br)o2)cc1 | -2.89%
108 | CCc1cc(=O)oc2c(C)c(O[C@@H]3O[C@H](CO)[C@@H](O)[C@H](O)[C@H]3O)ccc12 | -4.26%
109 | Cc1ccc(Sc2nnc(Cc3ccccc3)c3ccccc23)cc1 | -0.87%
